From patent US20230257475A1 come the findings set out here.

The target of the assay is human CD19, CD20 and CD22 on CD19+CD20+CD22+ tri-positive B lymphoma cells (Raji, Daudi) (human) (UniProt P15391). Briefly: flow cytometry on Raji cells (CD19+CD20+CD22+), serial dilution of the mAb, detection with PE-conjugated mouse anti-human IgG1Fc, MFI. (In flow cytometry, cells or beads pass a laser one at a time.)

B1: AIO-3C1-huIgG1Fc mAb (Fc fusion)
VHH-VHH-VHH-Fc chain: EVQLVESGPGLVKPSQTLSLTCTVSGASITTGEFYWNWFRQPPGKGLEWMGAIAASGSTTYSPSFESRTSISRDTSENQFYLQLSSVTPEDTAVYYCGRSFGVAAVTTGQNRGQGTQVTVSSGGGGSQVQLVESGGGSVQAGGSLRLSCGASGNINSRNCMGWFRQAPGKEREGVAAIGQVTGRSYYVDSVKGRFTISLDNAKNTLYLQMNTLKPEDTAMYYCAAAPGCLLSALRSADYRNWGQGTQVTVSSGGGGSQIQLVESGGGLVQPGGSLRLSCAASGFTFSNYPMTWLRQAPGKGLESVSDITSGGDRPYYADSVKGRFTISRDNAKNMLYLEMNSLKTEDTAVYYCATWDRTLTGQGTQVTVSS[in this place human IgG1 Fc]
The term EC50 denotes the concentration needed to bring the measured effect to its halfway point. In the case of B1, the half-maximal effective concentration (EC50) stood at 88.2 nM.

B2: huAIO-467-huIgG1Fc mAb (Fc fusion)
chain: QVQLQESGPGLVKPSQTLSLTCTVSGASITTGEFYWNWFRQPPGKGLEWMGAIAASGSTTYSPSFESRTSISRDTSKNQFSLKLSSVTAADTAVYYCGRSFGVAAVTTGQNRGQGTLVTVSSGGGGSQVQLVESGGGLVQPGGSLRLSCAASGNINSRNCMGWFRQAPGKGREGVAAIGQVTGRSYYVDSVKGRFTISLDNSKNTLYLQMNSLRAEDTAVYYCAAAPGCLLSALRSADYRNWGQGTLVTVSSGGGGSQIQLVESGGGLVQPGGSLRLSCAASGFTFSNYPMTWLRQAPGKGLESVSDITSGGDRPYYADSVKGRFTISRDNAKNMLYLQMNSLRAEDTAVYYCATWDRTLTGQGTMVTVSS[in this place human IgG1 Fc]
B2 showed a 50% effective concentration (EC50) of 94.5 nM.
